In publication PMC4336329 (PLoS ONE, 2015):
Screen size: about 310,000 compounds; about 2,200 (0.71%) showed an effect of 50% or more. The effect is printed as a negative number. This is one part of the list.

Molecular target: human ether-à-go-go-related gene (hERG) potassium channel (human, UniProt Q12809)
Assay: primary screen, population patch clamp on CHO cells stably expressing hERG

human ether-à-go-go-related gene (hERG) potassium channel, sequence (Q12809 whole entry, looked up): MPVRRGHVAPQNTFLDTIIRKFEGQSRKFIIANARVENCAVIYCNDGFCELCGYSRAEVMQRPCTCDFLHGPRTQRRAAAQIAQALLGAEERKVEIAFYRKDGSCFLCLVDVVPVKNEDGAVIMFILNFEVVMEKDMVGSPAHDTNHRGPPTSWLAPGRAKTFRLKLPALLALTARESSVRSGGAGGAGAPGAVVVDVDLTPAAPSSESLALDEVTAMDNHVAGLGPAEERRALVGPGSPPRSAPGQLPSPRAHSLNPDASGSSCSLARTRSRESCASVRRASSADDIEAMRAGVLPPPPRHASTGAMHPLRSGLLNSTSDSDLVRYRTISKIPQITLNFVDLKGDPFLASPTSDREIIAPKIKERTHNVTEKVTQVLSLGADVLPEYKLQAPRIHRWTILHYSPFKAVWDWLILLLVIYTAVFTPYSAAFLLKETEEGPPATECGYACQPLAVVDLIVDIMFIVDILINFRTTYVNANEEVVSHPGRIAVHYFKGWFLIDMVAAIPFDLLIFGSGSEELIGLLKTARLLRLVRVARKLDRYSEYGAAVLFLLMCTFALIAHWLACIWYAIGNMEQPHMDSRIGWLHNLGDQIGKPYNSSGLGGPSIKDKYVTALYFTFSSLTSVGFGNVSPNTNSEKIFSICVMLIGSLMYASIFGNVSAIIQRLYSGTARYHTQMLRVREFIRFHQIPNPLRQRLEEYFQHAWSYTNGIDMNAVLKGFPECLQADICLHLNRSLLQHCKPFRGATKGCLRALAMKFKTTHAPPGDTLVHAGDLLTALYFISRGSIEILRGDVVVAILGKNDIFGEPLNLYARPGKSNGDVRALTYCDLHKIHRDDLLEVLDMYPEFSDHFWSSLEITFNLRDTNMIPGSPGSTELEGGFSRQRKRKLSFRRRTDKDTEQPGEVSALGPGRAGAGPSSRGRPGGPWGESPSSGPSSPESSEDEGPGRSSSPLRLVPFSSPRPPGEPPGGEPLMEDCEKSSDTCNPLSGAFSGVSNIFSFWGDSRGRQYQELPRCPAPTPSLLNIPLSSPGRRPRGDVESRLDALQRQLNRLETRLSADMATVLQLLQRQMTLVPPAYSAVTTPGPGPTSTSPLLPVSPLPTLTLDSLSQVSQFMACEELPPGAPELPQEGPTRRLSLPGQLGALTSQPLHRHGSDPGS

In order of rising “hERG current change (%, negative = inhibition) at 1uM” value:
1. CCOC(=O)C1(CCOc2ccccc2)CCN(Cc2cc(OC)cc(OC)c2)CC1  -61.5%
2. Cc1ccc(CSCc2ccc(C(=O)NCCCN3CCOCC3)o2)cc1  -21.2%
3. c1ccc(-n2cc(CN3CCCC3)c(-c3ccc4c(c3)OCO4)n2)cc1  -9.33%
4. Cc1ccc(CSCC(=O)N(C)CC(=O)Nc2ccc(Br)cc2C)cc1  -8.88%
5. CNC(=O)N(O)C1N(/N=C/c2ccccc2OC)C(=S)SC1(C)C (centres unmarked)  -8.28%
6. CCOC(=O)N1CCC(NS(=O)(=O)c2cc3c(cc2Cl)NC(=O)CO3)CC1  -5.26%
7. NCCCN1CCN(c2ccccc2)CC1  -3.41%
8. O=C1C2C3C=CC(C3)C2C(=O)N1c1ccc(N2CCN(c3ccccn3)CC2)c([N+](=O)[O-])c1 (centres unmarked)  -3.4%
9. CCN(CC1CCCN(CCc2cccc(F)c2)C1)C(=O)c1cc(C)oc1C (centres unmarked)  -2.34%
10. O=C1CCCN1CCC1CCN(C2CC(=O)N(c3ccc(Cl)cc3)C2=O)CC1 (centres unmarked)  -1.45%
11. CN1/C(=C\C(=O)c2cccnc2)Sc2ccccc21  -0.793%
12. O=C(Nc1cccc(-c2csc(Nc3ccccc3)n2)c1)c1ccccc1  0.795%
13. CCOC(=O)C1C(C#N)=C(N)OC(C)=C1c1ccncc1 (centres unmarked)  1.12%
14. CCc1cc(C(=O)NCC(c2cccs2)N2CCOCC2)sc1C (centres unmarked)  1.52%
15. Cc1ccccc1Nc1nnc(SCC(=O)Nc2ncc(C(F)(F)F)cc2Cl)s1  1.58%
16. Nc1nc(SCc2c(F)cccc2Cl)[nH]c(=O)c1-c1ccccc1  1.7%
17. COc1ccc(-n2nc(C(=O)NCC(=O)N3CCC4(CC3)OCCO4)c3ccccc3c2=O)c(OC)c1  2.3%
18. COc1cc(C(=S)N2CCOCC2)cc(OC)c1OC(=O)c1ccc([N+](=O)[O-])cc1[N+](=O)[O-]  5.28%
19. COC(=O)C1=C(c2ccc(F)cc2F)C[C@@H]2CC[C@H]1N2C(=O)NC1Cc2ccccc2C1  5.46%
20. CC(C)N=C1NN=C(c2cccs2)C(CC(=O)O)S1 (centres unmarked)  6.19%
21. COc1ccc(NC(=O)CSc2nnc(-c3ccccn3)n2N)c(OC)c1  6.79%
22. Brc1ccc(CN2CC[C@H]3C=CCc4cccc(c43)C2)cc1  6.81%
23. O=C(NC1CCCCC1)c1cccnc1C(=O)O  7.05%
24. O=C(c1cc2nc(-c3ccco3)cc(C(F)(F)F)n2n1)N1CCN(c2ccccc2)CC1  8.48%
25. Cn1c2c(c(=O)n(C)c1=O)NC1(N2)C(=O)Nc2ccccc21 (centres unmarked)  9.25%
26. COc1ccc(NC(=O)COC(=O)[C@@H]2CCCN2C(=O)c2cccs2)c(OC)c1  9.78%
27. O=C(Nc1ccc(NC(=O)C2CC2)nc1)c1ccccc1F  9.96%
28. Cc1cc(F)ccc1S(=O)(=O)Nc1ccccc1C(=O)Nc1ccccc1-c1nc2ccccc2[nH]1  10.7%
29. Cc1cc(C)c2c(c1)/C(=N/NS(=O)(=O)c1ccc(Br)cc1)CCC2  10.8%
30. COc1ccc(C(=O)N/C(=C\c2ccco2)C(=O)NC2CCS(=O)(=O)C2)cc1 (centres unmarked)  12.4%
31. Cc1ccc(-c2ccc(CCC(=O)O)n2C(C)C)cc1  12.4%
32. COc1ccccc1NC(=O)COC(=O)c1ccccn1  13%
33. Cc1ccc(-c2noc(CN(C(=O)c3cccs3)C(C)C)n2)cc1  13%
34. Cc1ccc(-c2cc3ccccc3nc2N2CCCC2)cc1  13.2%
35. O=C(CCN1C(=O)/C(=C/c2ccc3c(c2)OCO3)SC1=S)Nc1ccc(C(=O)O)cc1  13.6%
36. Cc1cccc(C)c1OCCCn1ccnc1  14.4%
37. CC(=O)Oc1ccc(C(=O)NCCc2ccccc2)cc1  14.5%
38. COC(=O)c1cn(NC(=O)C2CCCO2)c(=O)c2ccccc12 (centres unmarked)  14.6%
39. Cn1c(=O)c2c(ncn2CC(=O)Nc2cccc(S(=O)(=O)Nc3ccccc3F)c2)n(C)c1=O  15.7%
40. COc1cccc(COC(=O)CCNC(=O)c2ccc(Cl)cc2)c1OC  16%
41. CN1CCN(S(=O)(=O)c2ccc(N3CCN(S(=O)(=O)c4cccs4)CC3)nc2)CC1  19.1%
42. O=C(Cc1ccccc1)NNC(=O)C1CC=CCC1 (centres unmarked)  19.1%
43. COc1ccc(CC(=O)Nc2ccncc2Cl)cc1  20.8%
44. COC(=O)CSc1nc2cc3c(cc2cc1C#N)OCO3  23.3%
